# Experimental data published in paper PMC6919601, “Identification of Plasmodium dipeptidyl aminopeptidase allosteric inhibitors by high throughput screening” (PLoS ONE, 2019).
# The campaign covered roughly 110,000 compounds. About 230 (0.21%) showed an effect of 50% or more. The list shows a part of the results.
# Biological target: DPAP1 (Plasmodium falciparum, UniProt Q8IIJ9)
# Assay: primary screen, percent inhibition; read by cleavage of a fluorogenic dipeptide substrate; higher = more effect of the substance
# Parameters: species or system P. falciparum D10 trophozoite lysates; single well
# 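Further: 30 min substrate incubation versus DMSO and 10 µM JCP410 controls.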
# Sequence of DPAP1 (Q8IIJ9 whole entry, looked up): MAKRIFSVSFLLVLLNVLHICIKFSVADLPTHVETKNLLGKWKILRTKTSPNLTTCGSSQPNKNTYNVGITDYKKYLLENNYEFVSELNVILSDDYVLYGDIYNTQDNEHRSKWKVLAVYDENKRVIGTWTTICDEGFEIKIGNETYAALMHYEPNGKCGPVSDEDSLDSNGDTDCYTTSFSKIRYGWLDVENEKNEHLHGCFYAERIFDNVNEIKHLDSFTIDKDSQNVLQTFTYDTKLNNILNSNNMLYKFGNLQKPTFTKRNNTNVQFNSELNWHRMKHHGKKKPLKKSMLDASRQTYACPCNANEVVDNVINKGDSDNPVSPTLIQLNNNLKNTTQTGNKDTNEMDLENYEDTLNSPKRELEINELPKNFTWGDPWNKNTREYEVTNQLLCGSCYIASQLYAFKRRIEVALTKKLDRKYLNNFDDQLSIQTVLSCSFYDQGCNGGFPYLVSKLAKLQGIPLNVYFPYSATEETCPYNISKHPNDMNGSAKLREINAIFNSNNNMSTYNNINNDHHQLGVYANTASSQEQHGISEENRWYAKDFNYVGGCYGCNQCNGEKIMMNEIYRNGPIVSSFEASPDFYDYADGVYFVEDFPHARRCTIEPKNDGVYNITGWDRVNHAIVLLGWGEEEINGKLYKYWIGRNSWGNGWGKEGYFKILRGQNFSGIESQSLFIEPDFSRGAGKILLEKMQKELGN
row,Structure (SMILES),% Inhibition @ 10 uM [%]
1,CCOCCCNC(=O)c1ccc2c(c1)sc1nc(-c3ccc(C)cc3)cn12,0.526
2,Cc1ccc(F)cc1NC(=O)c1sc2nc(-c3ccncc3)ccc2c1N,8.66
3,Cc1ccc(OCC(=O)Nc2nnc(C3CCCO3)s2)c(Br)c1 (stereo not shown),-2.98
4,C/N=C1/S/C(=C\c2ccc(OCc3ccccc3F)cc2)C(=O)N1C,1.86
5,CC(=O)Nc1ccc(S(=O)(=O)NC2CCCCC2)cc1,-2.55
6,COc1ccc(-c2ccc(=O)n(Cc3cccc(Cl)c3)n2)cc1,0.718
7,Cc1cccc(OCCCCN2CCCCC2)c1,-5.94
8,CC(=O)Nc1cccc(NC(=O)[C@@H]2C[C@@H]2c2ccccc2)c1,17.5
9,CCc1cccc(-n2nnc(-c3nc(-c4ccccc4C)no3)c2N)c1,2.45
10,COCCCN(C(=O)Cc1nc(-c2ccc(OC)cc2)no1)C(C)c1ccncc1 (stereo not shown),1.68
11,COC(=O)c1cc(S(=O)(=O)N2CC=C(c3ccccc3)CC2)cn1C,0.655
12,CCOC(=O)c1cc(C(C)C)sc1NC(=O)CCCC(=O)O,-1.1
13,CN(Cc1ccccc1)C(=O)Cn1ncc2c3ccccc3nc-2c1O,-4.25
14,O=C(CSc1nc(O)c2ccccc2n1)Nc1ccc(Br)cc1F,4.57
15,Cc1ccccc1C(=O)Nc1nc[nH]n1,-0.0372
16,COc1ccc(CN2CCCCC2CO)cc1C (stereo not shown),0.215
17,COC(=O)C(NC(=O)C(c1ccccc1)c1ccccc1)C12CC3CC(CC(C3)C1)C2 (stereo not shown),-2.15
18,Cc1cccc(-n2cnc3cc(C(=O)NCCN4CCOCC4)ccc32)c1,3.04
19,COc1cc(C=C2C(=O)OC(C)(C)OC2=O)cc(Cl)c1O,-0.467
20,COc1ccc(/C=C2\SC(N3CCN(CCC#N)CC3)=NC2=O)cc1,-4.33
21,CCCN1C(=O)/C(=C\c2ccc(C(=O)O)cc2)S/C1=N/c1ccccc1,-6.02
22,O=C(/C=C/c1cccnc1)c1ccncc1,1.96
23,O=C1Cc2ccccc2C(c2ccccc2)N1 (stereo not shown),3.82

row,Structure (SMILES),% Inhibition @ 10 uM [%]
1,N#C/C(=C\c1cccs1)c1nc(C2CC2)cs1,0.98
2,O=C(C[n+]1ccccc1)Nc1noc2ccccc12,2.19
3,CC(=O)N1CCN(S(=O)(=O)c2ccc(C)cc2)C1C (stereo not shown),-3.75
4,Nc1ncc(Br)cc1S(=O)(=O)NCCC(=O)NCCN1CCCCCC1,-1.87
5,COc1cccc(CSc2nc3ccncc3n2Cc2ccc(C(=O)NCc3ccco3)cc2)c1,1.72
6,CCC(C)NC(=O)C1CCN(c2nnc(C)c3c(C)n(-c4ccc(OC)cc4)nc23)CC1 (stereo not shown),-0.696
7,CCN(CC)CCNC(=O)c1cc2c(s1)-c1ccc(Cl)cc1SC2,-0.72
8,Cc1ccc(OCC(=O)NC2CCCCC2NC(=O)COc2ccc(C)cc2)cc1 (stereo not shown),-0.473
9,COCCN1C=C(C(=O)OC)C(c2sccc2C)C(C(=O)OC)=C1,-6.44
10,O=C(CCCOc1ccccc1)N1CCCC1,0.475
11,Cc1cc(C)c2c(c1)N[C@H](c1cccs1)[C@@H]1CCO[C@H]21,-6.05
12,Cc1ccc(/C=C/c2n[nH]c(-c3ccccc3O)n2)o1,0.628
13,COc1ccc(CN2CCc3ccccc3C2)c(O)c1,2.1
14,COc1cc(C(=O)NCC(C)C)cc(OC)c1OC,-6.39
15,O=C(c1cc2c(Cl)nc3ccccc3c2s1)N1CCN(c2ncccn2)CC1,8.03
16,Cc1cccc(N(CC(=O)Nc2ccc3c(c2)OCO3)S(=O)(=O)c2ccccc2)c1,2.37
17,COc1ccc(NC(=O)c2ccccc2NC(=O)CN2C(=O)c3ccccc3C2=O)cc1,0.812
18,O=S(=O)(c1ccc(Sc2ccc(S(=O)(=O)N3CCCCC3)cc2)cc1)N1CCCCC1,5.61
19,CCN1CCCC1CNC(=O)Cn1cccc1C(=O)c1ccccc1 (stereo not shown),-0.522
20,COc1ccccc1C/N=c1/c(-c2ccccc2)c(O)c1=O,-3.77
21,COc1ccc(N2C(=O)CSC2c2ccc(C)cc2)cc1 (stereo not shown),2.92
22,COC(=O)c1cc(-c2ccc(F)cc2)n(-c2ccccc2)n1,6.38
23,Cc1cc(C)n2nc(CCC(=O)O)nc2n1,-4.69

row,Structure (SMILES),% Inhibition @ 10 uM [%]
1,Cc1ccccc1NCCNc1ccccc1C,1.7
2,O=C(NCCc1c[nH]c2ccccc12)c1ccc(Cl)cc1,0.00178
3,Cc1csc(NC(=O)CCCC(=O)c2ccccc2)n1,0.238
4,CCCCCOc1ccc(C2C(C#N)=C(N)OC3=C2C(=O)CC(C)(C)C3)cc1OC (stereo not shown),-2.68
5,Cc1ccc(-c2nc(CSCC(=O)NC(C)c3ccccc3)c(C)o2)cc1 (stereo not shown),-1.05
6,Cc1nc2ccc(S(=O)(=O)C(F)(F)F)cc2s1,3.98
7,CCc1ccc(-c2cn3c(n2)sc2cc(C(=O)N4CCC5(CC4)OCCO5)ccc23)cc1,33.8
8,CC(C)c1ccc(NS(=O)(=O)c2ccc(Br)s2)cc1,2.95
9,CCOC(=O)c1c(C)nc2nn3c(N)c(C#N)nnc3c2c1-c1ccc(C)cc1,5.13
10,COc1ccc(CN2CCN(c3nn4nnnc4c4ccccc34)CC2)c(OC)c1OC,-6.66
11,N#Cc1c(N)nc2c(c1-c1ccco1)CCCCC2,-5.61
12,O=S(=O)(c1ccccc1)n1cccn1,-6.25
13,CC1CCCCN1S(=O)(=O)c1ccccc1[N+](=O)[O-] (stereo not shown),2.58
14,CC(Oc1ccccc1)C(=O)Nc1c(C(=O)NC(C)(C)C)oc2ccccc12 (stereo not shown),0.0065
15,C=C(C)c1cccc(C(C)(C)NC(=O)NCc2ccc(Cl)cc2)c1,-0.386
16,COC(=O)c1cc(OC)c(S(=O)(=O)NCc2ccccc2)cc1OC,-2.28
17,O=C(O)C1CC=CCC1C(=O)Nc1cc(Cl)ccc1Cl (stereo not shown),-0.305
18,COc1ccccc1N1CCN(C(=O)C2CC2)CC1,-1.36
19,COc1ccc(Br)cc1C1N2CC3(C)CN1CC(C)(C2)C3=O (stereo not shown),-1.31
20,O=C(O)CCS(=O)(=O)c1ccc(Cl)c(Cl)c1,-0.0369
21,COc1ccc(NC(=O)c2cccc(Cl)c2)cc1,4.06
